PubChem BioAssay AID463173 (ICCB-Longwood Screening Facility, Harvard Medical School, 2010)
About 1,700 (3.3%) of roughly 52,000 compounds were called active. No stated cut-off is given here; in the data, active means survival mostly below about 52% (no sharp cut-off); inactive means mostly above about 56%. This is one part of the list.

Tested on: Wild type
Assay: S. aureus survival, RN4220 and DeltatarO strains – OD600, teichoic acid synthesis inhibitors, primary screen (AID 463173)
Conditions: S. aureus RN4220 wild type/DeltatarO growth, OD600, 18 h, stronger effect = lower value, screened at 18.75 µg/mL (by protocol)

SMILES	survival
O=C(Nc1ccccc1Cl)c1cnsn1	inactive: 111%
CCOc1ccccc1NC(=O)CSc1nccn1-c1ccc(Cl)cc1	inactive: 80%
CSc1ccc(CCNC(=O)C2CCN(c3nc4ccccc4nc3C(F)(F)F)CC2)cc1	inactive: 73%
O=C(Cn1c(=O)n(Cc2ccc3c(c2)OCO3)c(=O)c2oc3ccccc3c21)Nc1ccccc1	inactive: 73%
CCc1ccc(-c2nc3ccc(Br)cc3c(C(=O)O)c2C)s1	inactive: 55%
Cc1ccccc1CNC(=O)C1CCN(c2nnc(C)c3c(C)n(-c4ccccc4)nc23)CC1	inactive: 97%
COC(=O)c1ccc(NC(=O)c2c(NCc3ccc(C)o3)sc3c2CCCC3)cc1	inactive: 77%
CCn1c(C(=O)NCc2cccc(Br)c2)cc2oc3ccccc3c21	active: 7%
CN1C(=O)C2(c3ccccc31)N(c1ccccc1)C(=O)CS2(=O)=O (centres undefined)	inactive: 77%
CCc1nnc(NC(=O)c2cc(=O)c3cc(C)c(C)cc3o2)s1	inactive: 74%
COc1cc(-c2noc(-c3cc4cc(F)ccc4oc3=O)n2)cc(OC)c1OC	inactive: 99%
CC(C)CC(C(=O)O)n1c(O)c(C2=c3ccccc3=NC2=O)sc1=S (centres undefined)	inactive: 112%
Cc1cc(C)c2oc(C(=O)Nc3sc4c(c3C(=O)NCc3ccco3)CCC4)cc(=O)c2c1	inactive: 87%
CC(C(=O)O)n1ncc2ccccc2c1=O (centres undefined)	inactive: 102%
Cc1ccc(NC(=O)/C=C/c2ccccc2)c(Br)c1	inactive: 154%
COc1ccc(-c2nc3scc(CCNS(=O)(=O)c4c(C)noc4C)n3n2)cc1	inactive: 73%
Cc1ccc(C)c(CN2C(=O)c3ccccc3S(=O)(=O)c3ccc(C(=O)Nc4ccccc4C(F)(F)F)cc32)c1	inactive: 99%
CN1CCN(C(=O)C(=O)Nc2c3c(nn2-c2ccc(F)cc2)CSC3)CC1	inactive: 81%
Cc1ccc(S(=O)(=O)NCCc2nnc3ccc(SCc4ccccc4C)nn23)cc1	inactive: 84%
COc1ccc(N2CCN(C(=O)Cn3cnc4nc5c(cc4c3=O)CCCC5)CC2)cc1	inactive: 78%

SMILES	survival
CCOC(=O)Cc1csc(NC(=O)CSc2nnc(-c3ccc(F)cc3)o2)n1	inactive: 107%
CCOC(=O)c1cccc(NC(=O)c2cc(CN3CCCC3)on2)c1	inactive: 75%
COc1ccc(/C=C\c2onc(C)c2S(=O)(=O)N2CCC(C(=O)Nc3ccccc3OC)CC2)cc1	inactive: 116%
C/C=N/NC(=O)c1ccccc1	inactive: 97%
O=C1NC(c2ccc(Cl)cc2)Nc2ccccc21 (centres undefined)	inactive: 113%
COc1ccc(OC)c(NC(=O)CSc2c3c(nc4ccccc24)CCCC3)c1	inactive: 86%
CC1CCN(S(=O)(=O)c2ccc3c(c2)N(CC(=O)NC(C)C)C(=O)CS3)CC1	inactive: 82%
Cc1ccc(Cn2cccc2C2=NC(C)(C)CO2)cc1	inactive: 28%
CC(C)Oc1ccc(C(=O)N2CCCC2C(=O)O)cc1 (centres undefined)	inactive: 120%
CCS(=O)(=O)N1N=C(c2ccc(C)cc2)CC1c1cc2ccc(OC)cc2nc1Cl (centres undefined)	inactive: 75%
N#CCC(c1ccccc1)c1ccc2c(c1)OCO2 (centres undefined)	inactive: 126%
COc1ccccc1OC(C)C(=O)NCC1(N2CCOCC2)CCCCC1 (centres undefined)	inactive: 87%
Cc1ccc(OC(=O)c2cc(-c3ccc4c(c3)OCCO4)on2)c(C)c1	active: -6%
CCc1nn(CCCC(=O)NCc2ccccc2Br)c(=O)c2cc3occc3n12	inactive: 80%
CCCC(=O)N1c2ncnn2C2(CCCCC2)[C@@H]2CCCC[C@@H]21	inactive: 81%
COc1ccc(NC(=O)CCNS(=O)(=O)c2cccc3nonc23)cc1	inactive: 68%
Cc1ccc(OCC(=O)NCC2(N3CCN(C)CC3)CCCCC2)cc1C	inactive: 91%
COc1ccccc1CNc1ccc(-c2nc(C(C)C)no2)cc1[N+](=O)[O-]	inactive: 71%
Cc1c(Cl)ccc2sc(N3CCN(C(=O)c4ccco4)CC3)nc12	inactive: 73%
Cc1ccc(CCNC(=O)CN(c2ccc(C)cc2)S(=O)(=O)c2c(C)noc2C)cc1	inactive: 88%

SMILES	survival
Cc1cc(C)c2c(CC(=O)N(Cc3ccc(N(C)C)cc3)Cc3ccco3)coc2c1	inactive: 62%
O=C(CSc1nc2c(c(=O)[nH]1)CCC2)Nc1ccccc1F	inactive: 78%
CN(C)c1ccc(CNc2nc(-c3ccco3)nn2S(=O)(=O)c2ccc3ccccc3c2)cc1	inactive: 85%
CCOc1ccc(CNC(=O)c2cc3oc4ccccc4c3n2C)cc1	inactive: 132%
Cc1ccc(C)c(NC(=O)Cn2cc(C(=O)c3ccncc3)c(=O)c3cc(F)ccc32)c1	inactive: 82%
COc1ccc(NC(=O)Cn2cnc3sc(C)c(S(=O)(=O)N4CCN(C)CC4)c3c2=O)cc1OC	inactive: 148%
CCOC(=O)C1CCN(C(c2ccccc2OC)c2c(O)cc(C)n(CCOC)c2=O)CC1 (centres undefined)	inactive: 70%
COc1cccc(-c2nc(-c3ccc(-c4ccccc4)nc3OC)no2)c1	active: 2%
Cc1ccc(C(=O)Nc2ccc(Cl)c(-c3nc4ncccc4o3)c2)c(C)c1	inactive: 62%
Cc1ccccc1OCc1ccc(-c2nc(C#N)c(NCCCN(C)C)o2)o1	inactive: 85%
Cc1ccccc1-c1nc(CNC(=O)Nc2ccccc2)c(C)o1	inactive: 68%
CCOC(=O)CN1CCOCCN(CC(=O)OCC)CCOCC1	inactive: 102%
CC1CCCCN1Cc1c(C#N)c2ccccc2n1C (centres undefined)	inactive: 109%
CC(C)CCOc1ccc(C(=O)Nc2sc3c(c2C#N)CCCCC3)cc1	inactive: 135%
Cn1nnnc1SCCCNCc1cccc(OCc2ccc(Cl)cc2)c1	inactive: 22%
O=C(Nc1ccc(F)cc1)[C@H](Cc1ccccc1)N1Cc2ccccc2C1=O	inactive: 91%
CCOc1ccccc1NC(=O)C1CCN(S(=O)(=O)c2c(C)noc2/C=C/c2ccc(C)cc2)CC1	inactive: 97%
CCOc1ccc(C(=O)NCCn2cc(SCC(=O)NCCc3ccc(OC)c(OC)c3)c3ccccc32)cc1	inactive: 62%
COC(=O)c1ccc(Nc2ncnc3c2nc2n3CCCC2)cc1	inactive: 131%
